The whole screen tested about 310,000 compounds, of which about 14,000 (4.5%) showed an effect of 50% or more. The effect is printed as a negative number. This is one part of the list. Where a SMILES comes first, the peptide text is derived from it. The star is where a group is joined. Boc = CC(C)(C)OC(=O)*
Target: human ether-à-go-go-related gene (hERG) potassium channel (human, UniProt Q12809)
Test: primary screen, population patch clamp on CHO cells stably expressing hERG
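Also: peak tail current of the secondary pulse compared with the same well before compound.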

Sequence of human ether-à-go-go-related gene (hERG) potassium channel (Q12809 whole entry, looked up): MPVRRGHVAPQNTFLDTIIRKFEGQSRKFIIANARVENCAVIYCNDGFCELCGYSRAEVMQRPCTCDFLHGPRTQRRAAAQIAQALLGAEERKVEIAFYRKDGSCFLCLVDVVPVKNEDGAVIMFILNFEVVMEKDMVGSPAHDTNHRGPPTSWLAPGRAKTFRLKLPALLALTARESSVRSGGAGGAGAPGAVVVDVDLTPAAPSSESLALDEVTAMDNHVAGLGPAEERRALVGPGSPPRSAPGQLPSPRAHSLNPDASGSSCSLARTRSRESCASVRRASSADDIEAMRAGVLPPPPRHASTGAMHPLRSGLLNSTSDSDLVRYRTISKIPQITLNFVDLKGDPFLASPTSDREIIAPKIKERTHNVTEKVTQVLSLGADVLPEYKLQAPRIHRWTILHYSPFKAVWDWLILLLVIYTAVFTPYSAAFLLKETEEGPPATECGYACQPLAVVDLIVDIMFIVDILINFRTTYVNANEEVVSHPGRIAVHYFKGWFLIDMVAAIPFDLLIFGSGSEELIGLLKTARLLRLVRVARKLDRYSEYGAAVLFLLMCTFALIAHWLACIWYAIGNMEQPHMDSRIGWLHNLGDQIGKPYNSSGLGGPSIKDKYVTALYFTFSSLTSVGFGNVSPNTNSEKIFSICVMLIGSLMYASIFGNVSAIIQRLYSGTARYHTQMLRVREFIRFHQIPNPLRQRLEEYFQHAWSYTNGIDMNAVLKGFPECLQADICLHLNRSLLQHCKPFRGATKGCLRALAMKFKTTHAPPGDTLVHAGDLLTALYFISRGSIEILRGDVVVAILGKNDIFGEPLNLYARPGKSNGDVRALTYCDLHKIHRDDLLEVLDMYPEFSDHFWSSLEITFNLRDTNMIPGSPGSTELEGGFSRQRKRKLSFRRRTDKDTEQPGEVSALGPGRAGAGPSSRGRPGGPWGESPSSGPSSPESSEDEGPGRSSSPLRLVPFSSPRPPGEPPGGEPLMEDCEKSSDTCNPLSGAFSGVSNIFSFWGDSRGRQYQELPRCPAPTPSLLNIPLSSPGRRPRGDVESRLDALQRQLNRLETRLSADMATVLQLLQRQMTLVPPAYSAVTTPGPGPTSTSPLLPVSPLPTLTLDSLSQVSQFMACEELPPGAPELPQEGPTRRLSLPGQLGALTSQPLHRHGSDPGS

Structure (SMILES) | hERG current change (%, negative = inhibition) at 10uM [%]
CNC(=S)Nc1ccc(C(N)=O)cc1 | 5.37
CCCc1nnc(NC(=O)Nc2ccccc2OC)s1 | 13
CC12CCC(C(=O)NCC3CCCO3)(OC1=O)C2(C)C (stereo not drawn) | 12.3
CCCCOc1ccc(C(=O)NN2CCOCC2)cc1 | 1.09
CCN(CC(=O)NC1CC1)S(=O)(=O)c1ccc(OC)cc1 | 14.4
COc1ccc(S(=O)(=O)n2cnc(C)c2)cc1 | 17.9
Cn1nc([N+](=O)[O-])nc1Oc1ccccc1F | 9.45
COC(=O)[C@@H]1CCCN1C(=O)[C@@H](NC(=O)OC(C)(C)C)C(C)C (Boc-Val-Pro-OMe) | 7.28
CC1(C)CCc2c([nH]c3ccccc3c2=O)O1 | 12.8
CC(C(=O)NCCN1C(=O)S/C(=C\c2cccs2)C1=O)N1C(=O)c2ccccc2C1=O (stereo not drawn) | -16.3
COc1ccccc1N/C=C/c1onc(C)c1[N+](=O)[O-] | 1.63
O=[N+]([O-])c1ccc(S(=O)(=O)N/N=C/c2ccc3c(c2)OCO3)cc1 | 4.04
CCOC(=O)c1c(NC(=O)Cn2nnc(-c3ccc(Cl)cc3)n2)sc(CC)c1C | 15.4
O=S(=O)(c1ccc(F)cc1)N1CCc2ccccc21 | -16.1
COc1ccc(C2=NN(C(=O)c3ccccc3)C(c3ccc(OC)c(OC)c3)C2)c(OC(C)=O)c1 (stereo not drawn) | -3.05
CCN(C(=O)c1ccc(NC(C)=O)cc1)c1ccccc1 | -0.241
N/C(=N\OC(=O)Cc1ccccc1[N+](=O)[O-])c1ccccn1 | 1.08
CCOC(=O)N1CCC(N2C(=O)c3ccc(C(=O)Nc4ccc(OC)cc4)cc3C2=O)CC1 | 12.7
Cc1nc2ccc(Br)cc2c(=O)n1Cc1cccs1 | -49.3

Structure (SMILES) | hERG current change (%, negative = inhibition) at 10uM [%]
CCn1c(=O)n(CC)c2cc(S(=O)(=O)Nc3cc(C)cc(C)c3C#N)ccc21 | -7.11
O=C(Cc1ncc(C(F)(F)F)cc1Cl)NCc1cccnc1 | 17.1
Cc1nc(N2CCN(c3ccccc3)CC2)nc2c1C(=O)CC(C)C2 (stereo not drawn) | 2.59
CCc1ccccc1NC(=O)CCCSc1nc2ccccc2s1 | 2.13
O=C1NC(=O)N(c2ccc3c(c2)OCO3)C(=O)/C1=C\c1ccc(-c2ccccc2C(=O)O)o1 | 18
O=S(=O)(CCN1CCSCC1)c1ccccc1 | 12.9
CC(=O)Nc1ccc(C(=O)OCC(=O)Nc2ccc(N3CCOCC3)cc2)cc1 | 18
O=c1c(Cc2ccccc2)c(O)nc2n1CCCS2 | 8.1
Cc1cccc(C)c1NC(=O)CN(C)C(=O)c1ccc(NS(=O)(=O)c2ccc3[nH]c(=O)[nH]c3c2)cc1 | 8.86
COc1ccc(NC(=O)c2ccccc2NC(=O)CN2CCCCCC2)cc1 | 8.82
COc1cc(-c2nc(-c3ccccc3)c(-c3cccs3)[nH]2)cc(OC)c1OC | -2.33
c1cncc(Nc2c3ccccc3nc3ccccc23)c1 | -30
CN(CCc1cnn(C)c1)Cc1nc(CC2CC2)no1 | -31.3
O=C(/C=C/c1cccc([N+](=O)[O-])c1)N1CCN(c2ccccc2F)CC1 | -38.9
COc1cccc(CC2(CO)CCCN(Cc3cc4ccccc4[nH]3)C2)c1 (stereo not drawn) | -37.5
CN(C)C1=NC(=O)/C(=C/c2ccc(-c3ccc(S(N)(=O)=O)cc3)o2)S1 | 10.8
CC(=O)N1CCC2(CC1)CC(=O)c1cc(OCC(=O)N3CCN(C)CC3)ccc1O2 | 1.86
Cc1ccc(CSc2nnc(-c3ccncc3)n2N)cc1 | 0.315
COc1ccc(C(=O)Nc2ccnn2C2CCN(Cc3ccccn3)CC2)cc1 | 5.54

Structure (SMILES) | hERG current change (%, negative = inhibition) at 10uM [%]
CCn1ccnc1CN(C)C(=O)c1ccc(OC2CCN(CCc3ccccc3)CC2)cc1 | -24.8
O=C(/C=C/c1ccc(F)cc1)c1ccc(N2CCOCC2)cc1 | 6.58
Cn1cnnc1SCC(=O)Nc1ccc(Br)cc1F | -7.75
O=C1/C(=C/c2ccccc2)N=C(N2CCOCC2)N1c1cccc(Cl)c1 | -20.2
COc1cccc(CN2CCN(C(=O)c3ccco3)CC2)c1.O=C(O)C(=O)O | -0.599
CN(C[C@H](Cc1ccccc1)N(C[C@H](Cc1ccccc1)N(CCc1cc(C(F)(F)F)cc(C(F)(F)F)c1)N=O)N=O)N=O.[Na+] | 7.96
COc1cccc(C(=O)N2CCN(Cc3ccccn3)CC2)c1OC.O=C(O)C(=O)O | -8.88
O=C(c1cccs1)N(Cc1cc2ccccc2[nH]c1=O)c1ccccc1 | -11.8
CC1CN(S(=O)(=O)c2cccc(C(=O)NCCC3=CCCCC3)c2)CC(C)O1 (stereo not drawn) | -36.5
CCN(Cc1ccccc1)S(=O)(=O)c1ccc(F)cc1 | -1.52
COc1ccc2c(CC(=O)OCC(=O)NC(=O)c3cccn3C)coc2c1 | 2.74
O=C(CCc1ccccc1)NCC1OCCc2ccccc21 (stereo not drawn) | -8.64
CCOc1ccc(CN2CCN(C(=O)c3ccccc3)CC2)cc1 | -39.5
C=C(C)Cn1c(-c2cccs2)n[nH]c1=S | 15.3
Cc1nn(-c2ccccc2)c2nc(C(F)(F)F)[nH]c(=O)c12 | 30.1
Cl.O=C(NCCN1CCOCC1)c1cc(S(=O)(=O)Nc2ccccc2F)c(Cl)cc1Cl | 5.95
COc1ccccc1CC(=O)NNC(=O)c1ccc(C(C)(C)C)cc1 | 15.2
CCO[C@H]1OC(C(=O)NC2CC2)=C[C@@H](c2ccccc2)[C@@H]1CCCO | 3.01
COc1ccc(N(CC(=O)Nc2ccc(S(=O)(=O)N3CCOCC3)cc2)S(=O)(=O)c2ccccc2)cc1 | 11.3
